PubChem BioAssay AID1240 (Sanford-Burnham Center for Chemical Genomics, 2008)
About 800 (1.6%) of roughly 50,000 compounds showed an effect of 50% or more. Some of the results follow.

molecular target: Bcl-2-like protein 10 (Homo sapiens) (UniProt Q9HD36); experiment: TR3 peptide-Bcl-B binding displacers, biochemical primary FP assay, phenotype converters (AID 1240); settings: GST-Bcl-B / FITC-TR3 peptide fluorescence polarization; stronger effect = higher value; compound at 3.75 mg/L;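 note: 0% = Bcl-B with tracer peptide and DMSO and 100% = tracer peptide lacking Bcl-B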
Chain of UniProt Q9HD36 (Q9HD36 whole entry, looked up): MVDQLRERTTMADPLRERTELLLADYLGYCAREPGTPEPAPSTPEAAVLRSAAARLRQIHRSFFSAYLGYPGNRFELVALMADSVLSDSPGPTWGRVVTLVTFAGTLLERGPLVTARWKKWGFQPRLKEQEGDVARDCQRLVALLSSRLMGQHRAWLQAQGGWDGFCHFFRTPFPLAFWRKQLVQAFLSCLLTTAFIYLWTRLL

With `O=S(=O)(c1ccc2c(c1)Cc1cc(S(=O)(=O)n3cnc4ccccc43)ccc1-2)n1cnc2ccccc21` as the molecule, how does the displacement read?
Its displacement is 15.9%.

How did the displacement turn out when `Clc1cccc(/C=N/N2CCN(Cc3cccc4ccccc34)CC2)c1Cl` was run?
The displacement was -10.9%.

With `CC1(C)CC(=O)C=C(Nc2nc(-c3ccccc3)cs2)C1` as the molecule, how does the displacement read?
The displacement was -1.5%.

`COCCCNC(=O)CN(c1ccc(F)cc1)S(=O)(=O)c1ccccc1` was tested. Which displacement did it give?
The displacement was 0.6%.

Which displacement does the source give for `O=S(=O)(Nc1cccc(C(F)(F)F)c1)c1ccc(F)cc1` here?
The displacement was -3.3%.

How did the displacement turn out when `CC(Oc1ccc(Cl)cc1Cl)C(=O)Nc1nc(-c2ccc(F)cc2)cs1` (stereo unspecified) was run?
Its displacement is 4.1%.

`Cc1cccc(C(=O)N2N=C(c3ccc(Cl)cc3)CC2(O)C(F)(F)F)c1` (stereo unspecified) was tested. Which displacement did it give?
Its displacement is -5.2%.

`Cc1cc([N+](=O)[O-])nn1C(=O)c1nn(C)cc1Br` was tested. Which displacement did it give?
Its displacement is 0.4%.

How did the displacement turn out when `O=C(/C=C/c1ccccc1)C1=C(O)C(=O)N(c2ccccc2)C1c1cccc([N+](=O)[O-])c1` (stereo unspecified) was run?
The displacement was 1.9%.

Which displacement does the source give for `Fc1ccccc1OCCCCn1ccnc1` here?
Its displacement is 11.1%.

`O=C(CCN1C(=O)c2ccccc2C1=O)Nc1cccnc1` was tested. Which displacement did it give?
Its displacement is -3.5%.

For `CCCC(=N)C1=C(O)CC(C)(C)CC1=O`, which displacement is on record?
Its displacement is 6.6%.

With `NS(=O)(=O)c1ccc(NS(=O)(=O)c2ccc(Br)cc2)cc1` as the molecule, how does the displacement read?
Its displacement is 12.9%.

`CN1CCN(/N=C/c2cccs2)CC1` was tested. Which displacement did it give?
The displacement was -0.3%.

How did the displacement turn out when `CN1CCN(C(=O)CCN2C(=O)/C(=C/c3cccs3)SC2=S)CC1` was run?
The displacement was 0.2%.

How did the displacement turn out when `COc1ccc(CN(CCC(c2ccccc2)C2CCOC(C)(C)C2)C(C)=O)cc1` (stereo unspecified) was run?
The displacement was -3.4%.

`COc1ccc(C2CC(c3ccc([N+](=O)[O-])cc3)=NN2C(=O)c2ccccc2)cc1OC` (stereo unspecified) was tested. Which displacement did it give?
Its displacement is 13.6%.

Which displacement does the source give for `COCCCNC(=O)CN(c1cc(C)cc(C)c1)S(=O)(=O)c1ccccc1` here?
The displacement was -9.8%.

How did the displacement turn out when `Cc1ccccc1-c1n[nH]c(=S)n1C` was run?
Its displacement is -8.4%.

Which displacement does the source give for `Cc1ccc(-c2nc3sc4c(c3c(=O)[nH]2)CCCC4)cc1[N+](=O)[O-]` here?
Its displacement is -32.4%.

`Cc1ccc(CC2CC2(Cl)Cl)c([N+](=O)[O-])c1` (stereo unspecified) was tested. Which displacement did it give?
Its displacement is 9.6%.

Which displacement does the source give for `O=C(NNC(=O)C12CC3CC(CC(C3)C1)C2)c1ccco1` here?
Its displacement is 5.7%.

Which displacement does the source give for `Cc1ccc(S(=O)(=O)N2CCN(S(C)(=O)=O)C2C(C)C)cc1` (stereo unspecified) here?
The displacement was 0.4%.

With `CN(C)CCCNC(=O)c1ccc([N+](=O)[O-])cc1` as the molecule, how does the displacement read?
The displacement was 0%.

How did the displacement turn out when `Fc1ccccc1COc1ccccc1/C=N/n1cnnc1` was run?
Its displacement is 1.6%.

`Cc1nnc(Nc2cccc(O)c2)c2ccccc12` was tested. Which displacement did it give?
Its displacement is -2.3%.

With `CC(=O)NCCN=Cc1cc2n(c1O)-c1ccccc1C2=O` as the molecule, how does the displacement read?
The displacement was 167%.

For `COc1ccccc1NCC(=O)N/N=C/c1cc(Br)cs1`, which displacement is on record?
Its displacement is -2.5%.

`Cc1nc2c(c3c1[nH]c1ccccc13)/C(=N\O)CC(C)(C)C2` was tested. Which displacement did it give?
The displacement was -9.7%.

Which displacement does the source give for `COc1ccc(CCNC(=O)CC(=O)N/N=C/c2ccco2)cc1OC` here?
The displacement was 9.3%.

Which displacement does the source give for `Cn1/c(=N/N=C/c2ccc(O)cc2O)sc2ccccc21` here?
Its displacement is 10.3%.

For `O=C(Nc1cccc(-c2nnc(-c3ccccc3)o2)c1)c1cccs1`, which displacement is on record?
Its displacement is 2%.

With `COc1ccc(-c2nnc(Sc3nc4ccc([N+](=O)[O-])cc4s3)n2-c2ccccc2)cc1` as the molecule, how does the displacement read?
Its displacement is 16.8%.

With `CCCOc1cccc(C(=O)Nc2ccc(C(=O)Nc3ccccc3C(=O)O)cc2)c1` as the molecule, how does the displacement read?
The displacement was -10.9%.

How did the displacement turn out when `O=C(COc1ccc(/C=N/NS(=O)(=O)c2ccccc2)cc1)Nc1ccccc1` was run?
The displacement was -1.8%.

`Cc1ccc(C(=O)Nc2ccccc2C(=O)NC(Cc2ccccc2)C(=O)O)cc1` (stereo unspecified) was tested. Which displacement did it give?
The displacement was 8.4%.

Which displacement does the source give for `CCOc1ccc(C(=O)N2CCOCC2)cc1` here?
The displacement was 3%.

For `Cc1ccc(OCCNc2cc(N3CCCC3)ccc2[N+](=O)[O-])cc1C`, which displacement is on record?
Its displacement is 25.3%.

Which displacement does the source give for `Cc1nn(C(=O)CN2C(=O)c3ccccc3C2=O)c(C)c1Br` here?
Its displacement is 5.6%.

With `Cc1ccc2nc(SCc3ccc([N+](=O)[O-])cc3)[nH]c2c1` as the molecule, how does the displacement read?
Its displacement is -11.6%.

Which displacement does the source give for `O=S1(=O)CCC(NC(=S)N/N=C/c2cccc(Oc3ccccc3)c2)C1` (stereo unspecified) here?
Its displacement is 0%.

`NNC(=O)c1cc(-c2ccc3ccccc3c2)n[nH]1` was tested. Which displacement did it give?
Its displacement is -23.1%.

How did the displacement turn out when `CCOC(=O)C1=C(O)/C(=C/c2ccc(CNC(=O)C(=O)Nc3ccc(C)cc3)o2)N=C1C` was run?
The displacement was 3.3%.

For `CCOP(=O)(O)COc1ccc([N+](=O)[O-])cc1`, which displacement is on record?
Its displacement is -4.8%.

With `CC(C)OC(=O)COc1cc2oc(=O)c3c(c2cc1Cl)CCCC3` as the molecule, how does the displacement read?
The displacement was -3.2%.

Which displacement does the source give for `CCOc1ccccc1NC(=O)c1c(NC(=O)Cc2ccccc2)sc2c1CCC2` here?
The displacement was -5.8%.

For `CC(=O)c1cnc2cc(-c3cccc(Br)c3)nn2c1C`, which displacement is on record?
Its displacement is -10%.

Which displacement does the source give for `COc1ccc(Cl)cc1NC(=O)CCCOc1ccc(Cl)cc1Cl` here?
Its displacement is -9.3%.

How did the displacement turn out when `CCOC(=O)C1=C(C)N(C)C(=O)NC1c1ccc(O)cc1` (stereo unspecified) was run?
Its displacement is -5.1%.

How did the displacement turn out when `Oc1ccccc1C=NC1=NN(c2cccc(C(F)(F)F)c2)CC1` was run?
The displacement was 3.8%.

For `COc1ccc(-c2nnc(NC(=O)c3ccccc3OC)s2)cc1`, which displacement is on record?
The displacement was 6.6%.

For `Nc1ccc2nn(-c3ccc([N+](=O)[O-])cc3)nc2c1`, which displacement is on record?
The displacement was -8.4%.

How did the displacement turn out when `COc1ccc(CNC(=O)COc2ccccc2)cc1` was run?
Its displacement is -2.3%.

How did the displacement turn out when `Cc1cc(C)c(C)c(OCCOCCN2CCN(C)CC2)c1` was run?
Its displacement is -9.4%.

Which displacement does the source give for `COc1ccc(NC(=O)/C(C#N)=C/c2cn(CC(=O)Nc3ccccc3)c3ccccc23)cc1` here?
The displacement was -21.4%.

How did the displacement turn out when `Cc1cccc(/C(N)=N/OC(=O)c2cccc(I)c2)c1` was run?
Its displacement is 6.4%.

`O=C(CCN1C(=O)/C(=C\c2ccc(Cl)cc2)SC1=S)Nc1cccc(C(=O)O)c1` was tested. Which displacement did it give?
The displacement was -6.4%.

How did the displacement turn out when `NC1=NC(=O)/C(=C\c2ccccc2Cl)S1` was run?
The displacement was 13.2%.

Which displacement does the source give for `CCOc1ccc(C(=O)Nc2ccc(NC(=O)c3ccco3)c(OC)c2)cc1` here?
Its displacement is -40%.

Which displacement does the source give for `Cc1ccc(C(=O)Oc2ccc(NS(=O)(=O)c3cc(C)ccc3C)cc2)cc1` here?
Its displacement is 9.5%.

With `NC(=O)C(c1ccccc1)c1ccccn1` (stereo unspecified) as the molecule, how does the displacement read?
Its displacement is 15.8%.

How did the displacement turn out when `CCC1=NC(C(F)(F)F)(C(F)(F)F)N=C(N2CCCCC2)O1` was run?
Its displacement is 12.7%.

How did the displacement turn out when `COc1ccc(Cl)cc1N=Cc1c(O)[nH]c(=O)[nH]c1=O` was run?
Its displacement is 10.3%.

With `CCOc1ccc(C2C(C(=O)OC(C)C)C(=O)CC(C)(O)C2C(=O)OC(C)C)cc1` (stereo unspecified) as the molecule, how does the displacement read?
The displacement was -3.6%.

`N#C/C(=C/c1ccc(F)cc1)C(=O)Nc1cccc(Br)c1` was tested. Which displacement did it give?
Its displacement is -19.5%.

`COc1cc(NC(=O)c2cnccn2)c(OC)cc1Cl` was tested. Which displacement did it give?
Its displacement is 28.7%.

How did the displacement turn out when `CCOc1ccc(NC(=O)CN(c2ccc(Oc3ccccc3)cc2)S(C)(=O)=O)cc1` was run?
The displacement was -0.6%.

How did the displacement turn out when `C=CCn1c(N)c(C(=O)NCC2CCCO2)sc1=S` (stereo unspecified) was run?
Its displacement is 9.8%.

With `CCOc1ccc(N2C(=O)NC(=O)/C(=C\c3ccc(OCC(=O)O)c(Br)c3)C2=O)cc1` as the molecule, how does the displacement read?
The displacement was -27%.

With `CCOC(=O)c1c(N)sc(C(=O)OC(C)(C)C)c1C` as the molecule, how does the displacement read?
The displacement was 3.9%.

With `Cc1ccc(/C=C/C(=O)Nc2cccc(Cl)c2Cl)o1` as the molecule, how does the displacement read?
Its displacement is 19%.
